# Test results reported in the supplement of paper PMC8728848.
# The other results are listed elsewhere or left out.
# B1: AT5G01260(PC)(40) (Arabidopsis thaliana), Q9LFB0 (protein)
# chain: MIGIGRTLTSSSPSKIILEDLPPGIYRYGTEIFTSVPRKTFHHIKFLRLDSAQSSRILKPVPLRSSSIKDSQVNVEDEEIEASNKTVRVRFQLRKECVFGEHFFIVGDDPVFGGLWDPETALPLNWSDGNVWTVDLDLPVGRLVEFKLLLKAQTGEILWQPGPNRALETWETNKTIRICEDWDNADLQMMIEEDFVPYTNISSIGSEDEDEVLGSVQQNSSVVAVENAGYVSDESAQNSSFSIQSEKTMEPSNGALTAREVIKEAMFTEEESPVLVPGLIPLSDLDNEQVEVINEGKAETFPEVDKKQEPKAERNKKAKVKAISLFEKSEQEAVKSVEQRQYNAVEEEQQRLETEPLGTPDVLFENDIQWGRRTLYKLLSNFRLF
# Experiments:
# Experiment in all cases: glycan array binding signal (z-score within array); higher = stronger binding
# Details in all cases: glycan notation: IUPAC condensed, linker removed
# [1] = target: Neu5Ac(a2-8)Neu5Ac
# How it was run: (§1)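 Glycan array data were curated from 3228 arrays in the Consortium for Functional Glycomics database and kept only where the protein sequence was available. Glycan names were converted to IUPAC-condensed notation, and columns mapping to the same glycan were averaged. The binding signal is a within-array Z-score, averaged across arrays of the same protein sequence at different concentrations or buffers and across linkers. Negative Z-scores can be read as non-binding.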
# [2] = target: Neu5Ac(a2-8)Neu5Ac(a2-3)Gal(b1-3)GalNAc(b1-4)[Neu5Ac(a2-3)]Gal(b1-4)Glc
# How it was run: as §1
# [3] = target: Neu5Ac(a2-8)Neu5Ac(a2-3)Gal(b1-3)GalNAc(b1-4)[Neu5Ac(a2-8)Neu5Ac(a2-3)]Gal(b1-4)Glc
# How it was run: as §1
# [4] = target: Neu5Ac(a2-8)Neu5Ac(a2-3)Gal(b1-4)Glc
# How it was run: as §1
# [5] = target: Neu5Ac(a2-8)Neu5Ac(a2-3)Gal(b1-4)GlcNAc
# How it was run: as §1
# [6] = target: Neu5Ac(a2-8)Neu5Ac(a2-3)[Gal(b1-3)GalNAc(b1-4)]Gal(b1-4)Glc
# How it was run: as §1
# [7] = target: Neu5Ac(a2-8)Neu5Ac(a2-3)[GalNAc(b1-4)]Gal(b1-4)Glc
# How it was run: as §1
# [8] = target: Neu5Ac(a2-8)Neu5Ac(a2-8)Neu5Ac
# How it was run: as §1
# [9] = target: Neu5Ac(a2-8)Neu5Ac(a2-8)Neu5Ac(a2-3)Gal(b1-4)Glc
# How it was run: as §1
# [10] = target: Neu5Ac(a2-8)Neu5Ac(a2-8)Neu5Ac(a2-3)[Gal(b1-3)GalNAc(b1-4)]Gal(b1-4)Glc
# How it was run: as §1
# [11] = target: Neu5Ac(a2-8)Neu5Ac(a2-8)Neu5Ac(a2-3)[GalNAc(b1-4)]Gal(b1-4)Glc
# How it was run: as §1
# [12] = target: Neu5Ac(a2-8)Neu5Ac(a2-8)Neu5Ac(a2-8)Neu5Ac(a2-3)[GalNAc(b1-4)]Gal(b1-4)Glc
# How it was run: as §1
# [13] = target: Neu5Ac(a2-8)Neu5Gc(a2-3)Gal(b1-4)GlcNAc
# How it was run: as §1
# [14] = target: Neu5Ac(b2-6)Gal(b1-4)GlcNAc
# How it was run: as §1
# [15] = target: Neu5Ac(b2-6)GalNAc
# How it was run: as §1
# [16] = target: Neu5Ac9Ac(a2-3)Gal(b1-3)GlcNAc
# How it was run: as §1
# [17] = target: Neu5Ac9Ac(a2-3)Gal(b1-4)GlcNAc
# How it was run: as §1
# [18] = target: Neu5Ac9Ac(a2-6)Gal(b1-4)GlcNAc
# How it was run: as §1
# [19] = target: Neu5Gc(a2-3)Gal(b1-3)GlcNAc
# How it was run: as §1
# [20] = target: Neu5Gc(a2-3)Gal(b1-3)[Fuc(a1-4)]GlcNAc
# How it was run: as §1
# [21] = target: Neu5Gc(a2-3)Gal(b1-4)Glc
# How it was run: as §1
# [22] = target: Neu5Gc(a2-3)Gal(b1-4)GlcNAc
# How it was run: as §1
# [23] = target: Neu5Gc(a2-3)Gal(b1-4)GlcNAc(b1-3)Gal(b1-4)GlcNAc(b1-2)Man(a1-3)[Neu5Gc(a2-3)Gal(b1-4)GlcNAc(b1-3)Gal(b1-4)GlcNAc(b1-2)Man(a1-6)]Man(b1-4)GlcNAc(b1-4)GlcNAc
# How it was run: as §1
# [24] = target: Neu5Gc(a2-3)Gal(b1-4)[Fuc(a1-3)]GlcNAc
# How it was run: as §1
# [25] = target: Neu5Gc(a2-6)Gal(b1-4)GlcNAc
# How it was run: as §1
# [26] = target: Neu5Gc(a2-6)GalNAc
# How it was run: as §1
# [27] = target: Neu5Gc(a2-8)Neu5Ac(a2-3)Gal(b1-4)GlcNAc
# How it was run: as §1
# [28] = target: Neu5Gc(a2-8)Neu5Gc(a2-3)Gal(b1-4)GlcNAc
# How it was run: as §1
# [29] = target: Neu5Gc(a2-8)Neu5Gc(a2-3)Gal(b1-4)GlcNAc(b1-3)Gal(b1-4)GlcNAc
# How it was run: as §1
# [30] = target: Neu5Gc(a2-8)Neu5Gc(a2-6)Gal(b1-4)GlcNAc
# How it was run: as §1
# [31] = target: Neu5Gc(b2-6)Gal(b1-4)GlcNAc
# How it was run: as §1
binder,measurement,setting,value
B1,glycan array binding signal (z-score),[1],0.074
same,glycan array binding signal (z-score),[2],-0.412
same,glycan array binding signal (z-score),[3],1.02
same,glycan array binding signal (z-score),[4],0.641
same,glycan array binding signal (z-score),[5],-0.077
same,glycan array binding signal (z-score),[6],0.612
same,glycan array binding signal (z-score),[7],0.746
same,glycan array binding signal (z-score),[8],-0.58
same,glycan array binding signal (z-score),[9],0.679
same,glycan array binding signal (z-score),[10],-0.665
same,glycan array binding signal (z-score),[11],-0.154
same,glycan array binding signal (z-score),[12],0.413
same,glycan array binding signal (z-score),[13],0.029
same,glycan array binding signal (z-score),[14],-0.156
same,glycan array binding signal (z-score),[15],-0.728
same,glycan array binding signal (z-score),[16],-0.666
same,glycan array binding signal (z-score),[17],-0.427
same,glycan array binding signal (z-score),[18],-0.05
same,glycan array binding signal (z-score),[19],-0.145
same,glycan array binding signal (z-score),[20],-0.249
same,glycan array binding signal (z-score),[21],0.948
same,glycan array binding signal (z-score),[22],-0.06
same,glycan array binding signal (z-score),[23],0.832
same,glycan array binding signal (z-score),[24],0.055
same,glycan array binding signal (z-score),[25],-0.103
same,glycan array binding signal (z-score),[26],-0.306
same,glycan array binding signal (z-score),[27],-0.014
same,glycan array binding signal (z-score),[28],-0.671
same,glycan array binding signal (z-score),[29],-0.294
same,glycan array binding signal (z-score),[30],0.02
same,glycan array binding signal (z-score),[31],0.159
